# Source: PubChem BioAssay AID652104 (National Center for Advancing Translational Sciences (NCATS), 2013)
# About 7,200 (1.8%) of roughly 410,000 compounds were called active. This list was built around the results that the source calls inconclusive (neither active nor inactive); the mix of calls is not that of the screen. The call rests on the fitted dose curve; in most records, active means well fitted activation curve with a large enough effect; inconclusive means small, poorly fitted or top-dose-only effect, or another doubt; inactive means no such curve, though single readings can be large or run the other way. No potency is given beside an inconclusive call; the fits are too rough.
# Test: qHTS of TDP-43 Inhibitors; further: nearly all actives have a fitted effect of over 50% in size; on growth rescue (activation): % of control where 0% means no effect
# Settings: TDP-43 expressing yeast growth rescue, BacTiter-Glo, 24 h; growth rescue (activation): at 46.1 µM (top of the series) unless noted
# Outline: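 Growth rescue of TDP-43-toxic yeast measured as ATP luminescence (BacTiter-Glo). Cells grown to mid-log in raffinose, induced in galactose at OD600=0.02, exposed to compound 24 hr at 30 deg C.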
# Potency means the concentration at half of the fitted maximal effect; tags describe the fitted curve by direction and shape.
Compound,growth rescue (activation),Potency
COc1ccc(-c2onc(C)c2C)cc1S(=O)(=O)N1CCN(c2ccc(Cl)cc2)CC1,inactive: 20.6%,
Cc1cccc2cc3c(N)c(C(=O)N4CCOCC4)sc3nc12,,"inconclusive [activator, single point]"
CC(C)=CCc1cc([C@@H]2COc3c(ccc4c3C=CC(C)(C)O4)C2)c(O)cc1O,inconclusive: -91.7% [activator],
O=C(CN1CCC(n2nnc3ccccc32)CC1)NCc1cccs1,inconclusive: 25.8% [activator],
Cc1ccc(-n2ncc3c(N(CC(C)C)CC(C)C)ncnc32)c(C)c1,,"inconclusive [activator, partial curve]"
CC(C)S(=O)(=O)c1oc(-c2cccs2)nc1S(=O)(=O)c1ccc(F)cc1,,active: 8.91 µM
CCCC1NC(=O)c2cccnc2-n2c1nc1ccc(OC)cc1c2=O (stereo unspecified),inactive: 3.04%,
Nc1ncnc2c1ncn2CCOc1ccccc1,inactive: 1.32%,
O=C(COc1ccccc1[N+](=O)[O-])N1CCC(c2nc3ccccc3o2)CC1,,"inconclusive [activator, partial curve]"
Cc1ccc(-n2c(SCC(=O)NNC(=S)Nc3ccccc3)nc3ccccc3c2=O)cc1,,"inconclusive [activator, full curve, poor fit]"
CC(C)c1ccc(NC(=O)COC(=O)C2CC3C=CC2C3)cc1 (stereo unspecified),,"inconclusive [activator, partial curve]"
CCn1c(CN2CCN(CCO)CC2)nc2ccccc21,,"inconclusive [activator, partial curve]"
COc1ccc(NC(=O)c2c(NCc3cccs3)sc3c2CCCC3)cc1,,"inconclusive [activator, single point]"
O=C(NCc1ccc2c(c1)OCO2)C(=O)NCC1OCCN1S(=O)(=O)c1ccccc1 (stereo unspecified),inactive: -4.91%,
Cc1ccc(C)c(N2CCN(C(=O)CC3Sc4ccccc4NC3=O)CC2)c1 (stereo unspecified),,active: 22.4 µM
Brc1ccccc1-c1nnc2sc(-c3ccc4c(c3)OCCO4)nn12,,"inconclusive [activator, partial curve]"
c1ccc(OCCNc2ccn3nc(-c4cccs4)cc3n2)cc1,,active: 14.1 µM
O=c1oc2c(CN3CCCC3)c(O)ccc2cc1-c1ccccc1,inactive: 16.9%,
O=C(CSc1nc2ccccc2n1CCc1ccccc1)c1ccc(O)c(O)c1,,"inconclusive [activator, partial curve]"
COc1ccc(N2CCN(C(CNS(=O)(=O)c3cc(F)ccc3F)c3cccnc3)CC2)cc1 (stereo unspecified),,"inconclusive [activator, partial curve]"
NC(=O)c1ccccc1N/C=C/C(=O)c1cccs1,,"inconclusive [activator, single point]"
CCOc1ccc(CNC(=O)c2ccc3c(c2)nnn3C2CCCC2)cc1,inactive: 21.2%,
Cc1ccc(C(=O)Nc2cccnc2Oc2ccc(Cl)cc2)cc1,inactive: -2.69%,
CSc1ncc(C(=O)NCc2ccc(C)cc2)c(-c2ccccc2)n1,inactive: 14.7%,

Compound,growth rescue (activation),Potency
Cc1ccc(C(C)C)cc1OCC(=O)Nc1ccc(-n2cnnn2)cc1,,"inconclusive [activator, partial curve]"
CCOc1ccc(C(=O)CC(C(=O)O)N2CCCCC2)cc1 (stereo unspecified),,active: 35.5 µM
CCOc1cccc(NC(=O)C2CC(=O)N(C)C(=Nc3ccc(F)cc3)S2)c1 (stereo unspecified),,active: 25.1 µM
COCCCNC(=S)N1CCCC(c2nc3cc(C)c(C)cc3[nH]2)C1 (stereo unspecified),inactive: -14.1% [at 0.397 µM],
CCOc1ccccc1NC(=O)CN1C(=O)COc2ccc(S(=O)(=O)N3CCCCC3)cc21,inactive: 16.7%,
Cc1n[nH]c(C)c1S(=O)(=O)N1CCCC(C(=O)NCC2COc3ccccc3O2)C1 (stereo unspecified),inactive: -1.06%,
Cc1ccc(CNC(=S)Nc2ccc(OC(F)F)cc2C)cc1,,"inconclusive [activator, partial curve]"
Cc1onc(C(=O)N2CCN(c3ccccc3)CC2)c1[N+](=O)[O-],,"inconclusive [activator, single point]"
COC(=O)c1cc2sc(C)cc2n1CC(=O)Nc1cccc(SC)c1,inactive: 1.95%,
FC(F)(F)c1ccc(-c2noc(-c3ccccc3Br)n2)cc1,inactive: 19.8%,
S=c1[nH]nc(CSc2nc3ccccc3s2)n1C1CCCCC1,,"inconclusive [activator, single point]"
O=C(COC(=O)Cc1c(Cl)cccc1Cl)NCC1CCCO1 (stereo unspecified),inactive: -7%,
O=C(CN1CCCc2ccccc21)NCc1ccc2c(c1)OCO2,,active: 11.2 µM
COc1ccc(-c2csc(Nc3cc(C)ccn3)n2)cc1C,,"inconclusive [activator, single point]"
Oc1c(C(Nc2nc3ccccc3s2)c2ccco2)ccc2cccnc12 (stereo unspecified),,active: 20 µM
Cc1[nH]c2ccccc2c1CN1CCN(c2ccccn2)CC1,,"inconclusive [activator, single point]"
Cc1cccc(NCN2C(=O)C3C4C=CC(C4)C3C2=O)c1 (stereo unspecified),,active: 11.2 µM
Cc1cccc(C)c1OCCNC(=O)c1ccc2ccccc2n1,,"inconclusive [activator, partial curve]"
C=CCN(CC=C)C(=S)NC(=O)c1ccc(OC)c(Br)c1,,"inconclusive [activator, single point]"
NC(=O)c1ccsc1NC(=O)COC(=O)Cc1cccc2ccccc12,,"inconclusive [activator, single point]"
COc1ccc2c(c1)C(SCC(=O)NCCc1ccc(Cl)cc1)CC(C)(C)O2 (stereo unspecified),,"inconclusive [activator, single point]"
O=c1c2cn[nH]c2nc(SCc2ccccc2F)n1-c1ccc(Br)cc1,,"inconclusive [activator, single point]"
CC(C)(C)C(=O)Nc1cccc(OC(F)(F)C(F)Cl)c1 (stereo unspecified),,"inconclusive [activator, single point]"
CCC/C=C/c1ccc(CN2C(C(C)C)C(=O)N(Cc3cn(CCC4OCCCO4)nn3)CCS2(=O)=O)cc1 (stereo unspecified),,"inconclusive [activator, single point]"

Compound,growth rescue (activation),Potency
O=C(C[n+]1cc(-c2ccc(Cl)cc2)n2c1CCCCC2)c1ccccc1,inactive: -26.7%,
COc1cc(OC)cc(-c2nnc(SCC(=O)N3CCCc4ccccc43)o2)c1,,"inconclusive [activator, single point]"
CC(C)N(Cc1nc(-c2ccccc2)no1)S(=O)(=O)c1ccccc1,,"inconclusive [activator, single point]"
O=C(CN1c2ccccc2Sc2ccccc21)NNC(=S)Nc1ccc(Cl)cc1,,"inconclusive [activator, partial curve]"
Cc1cc(C)c(S(=O)(=O)NCc2csc(-c3ccccc3)n2)c(C)c1,,"inconclusive [activator, partial curve]"
CCc1ccccc1N(C)C(=O)c1nn(C)c2c1CSc1ccccc1-2,,"inconclusive [activator, partial curve]"
COc1ccc(C(=O)N2CCN(c3ccc(N4CCOCC4)nn3)CC2)cc1OC,inactive: 0.0406%,
COc1ccc(COC(=O)c2ccc(Cl)c(S(=O)(=O)N3CC(C)OC(C)C3)c2)cc1 (stereo unspecified),,"inconclusive [activator, partial curve]"
Oc1ccc(-c2csc(Nc3ccccn3)n2)cc1,,"inconclusive [activator, single point]"
COc1ccc(Cl)cc1Cn1c(C)c(C(=O)NCc2ccc3c(c2)OCCO3)sc1=O,,"inconclusive [activator, single point]"
CCOC(=O)C1CCCN(C(=O)c2cc3ccc(OC)cc3[nH]2)C1 (stereo unspecified),,"inconclusive [activator, full curve]"
CCOC(=O)CSc1nc2ccc(N3CCOCC3)cc2c(=O)n1Cc1ccccc1,,"inconclusive [activator, single point]"
COCC1CCCN(C(=O)c2ccc3oc(Cc4ccc(Cl)cc4)nc3c2)C1 (stereo unspecified),,"inconclusive [activator, partial curve]"
CCN(CC)C(=O)c1sc2c(c1C)c(=O)n(-c1ccc(C)c(C)c1)c(=O)n2Cc1cccc(Cl)c1,,"inconclusive [activator, single point]"
Fc1ccc(-c2csc(Nc3ccccn3)n2)c(F)c1,,"inconclusive [activator, partial curve]"
O=C1c2ccccc2NC(c2ccc(Cl)cc2Cl)N1O (stereo unspecified),inactive: -36.1%,
COc1ccc(-c2cc(C(=O)N3CCCc4ccccc43)no2)cc1OC,,active: 15.8 µM
COc1ccc(CCC(=O)N2CCN(c3cccc(C)c3C)CC2)cc1,,"inconclusive [activator, single point]"
COc1cccc(-c2nn(-c3ccc(C)cc3)cc2C(=O)NCC2CCCO2)c1 (stereo unspecified),,"inconclusive [activator, single point]"
C=CCSC(=C(C#N)C#N)c1cc2c([nH]1)CCCC2,,"inconclusive [activator, single point]"
CCOC(=O)c1c(NC(=O)CC(C)C)sc(C(C)=O)c1C,,"inconclusive [activator, single point]"
CCOC(=O)c1nnn(-c2nc(OC)nc(N3CCCC3)n2)c1-c1ccccc1,,"inconclusive [activator, partial curve]"
CC1CC(C)CN(S(=O)(=O)c2cccc(C(=O)N3CCN(c4ccc(F)cc4)CC3)c2)C1 (stereo unspecified),,"inconclusive [activator, single point]"
